Values belong to the binder of their own block, whether it stands above or below them.
Assays:
human FcγRIa (human) [1] = target: human FcγRIa (human) (UniProt P12314); assay: Biacore, captured antibody, FcγR analyte
human FcγRIa (human) [2] = target: human FcγRIa (human) (UniProt P12314); assay: SPR (Biacore), captured antibody, FcγR analyte; bound/captured amount vs control x100
human FcγRIIa(H) (human) = human FcγRIIa(H) (human) (UniProt P12318); assay: SPR (Biacore), captured antibody, FcγR analyte; bound amount per captured amount vs GpH7-B3/GpL16-k0 x100
UniProt P12318, sequence (P12318 other isoform, or with tags, fused parts or gaps limits assumed): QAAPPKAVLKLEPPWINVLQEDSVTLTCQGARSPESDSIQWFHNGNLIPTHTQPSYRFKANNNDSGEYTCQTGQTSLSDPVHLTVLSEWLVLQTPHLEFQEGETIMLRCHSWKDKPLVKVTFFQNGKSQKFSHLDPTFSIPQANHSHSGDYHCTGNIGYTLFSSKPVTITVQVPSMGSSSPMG

human FcγRIIb (human) = human FcγRIIb (human) (UniProt P31994); assay: SPR (Biacore), captured antibody, FcγR analyte; bound/captured amount vs control x100
UniProt P31994, sequence (P31994 43-217 limits assumed): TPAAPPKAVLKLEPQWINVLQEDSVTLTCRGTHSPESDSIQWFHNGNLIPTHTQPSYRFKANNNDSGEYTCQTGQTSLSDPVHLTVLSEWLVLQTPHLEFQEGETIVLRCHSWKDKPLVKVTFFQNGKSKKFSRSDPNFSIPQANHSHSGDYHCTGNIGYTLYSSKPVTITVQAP

UniProt P12314, sequence (P12314 16-292 limits assumed): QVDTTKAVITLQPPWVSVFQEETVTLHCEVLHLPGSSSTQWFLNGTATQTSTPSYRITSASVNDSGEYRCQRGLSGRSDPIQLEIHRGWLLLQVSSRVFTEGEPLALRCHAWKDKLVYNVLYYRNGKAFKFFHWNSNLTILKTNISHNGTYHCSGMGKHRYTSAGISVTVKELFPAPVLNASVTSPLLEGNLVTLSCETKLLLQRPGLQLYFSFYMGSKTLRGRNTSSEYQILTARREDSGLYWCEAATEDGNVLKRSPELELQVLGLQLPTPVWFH

relative binding activity (% of GpH7-B3/GpL16-k0) (human FcγRIa (human) [1]): 8
B1: GpH7-B3 L235T/GpL16-k0 (antibody, human IgG1)
heavy: QVQLVQSGAEVKKPGASVTVSCKASGYTFTDYEMHWIRQPPGEGLEWIGAIDPKTGDTAYSESFQDRVTLTADKSTSTAYMELSSLTSEDTAVYYCTRFYSYTYWGQGTLVTVSS[here human IgG1 constant region with L235T K439E (EU numbers) without letters]
light: DIVMTQSPLSLPVTPGEPASISCQASESLVHSNRNTYLHWYLQKPGQSPQLLIYKVSNRFSGVPDRFSGSGSGTDFTLKISRVEAEDVGVYYCSQNTHVPPTFGQGTKVEIE

relative binding activity (% of GpH7-B3/GpL16-k0) (human FcγRIa (human) [2]): 8
B2: GpH7-B3 P238K/GpL16-k0 (antibody, human IgG1)
heavy: QVQLVQSGAEVKKPGASVTVSCKASGYTFTDYEMHWIRQPPGEGLEWIGAIDPKTGDTAYSESFQDRVTLTADKSTSTAYMELSSLTSEDTAVYYCTRFYSYTYWGQGTLVTVSS[here human IgG1 constant region with P238K K439E (EU numbers) without letters]
light: DIVMTQSPLSLPVTPGEPASISCQASESLVHSNRNTYLHWYLQKPGQSPQLLIYKVSNRFSGVPDRFSGSGSGTDFTLKISRVEAEDVGVYYCSQNTHVPPTFGQGTKVEIE

relative binding activity (% of GpH7-B3/GpL16-k0) (human FcγRIIa(H) (human)): 8
B3: GpH7-B3 V266F/GpL16-k0 (antibody, human IgG1)
heavy: QVQLVQSGAEVKKPGASVTVSCKASGYTFTDYEMHWIRQPPGEGLEWIGAIDPKTGDTAYSESFQDRVTLTADKSTSTAYMELSSLTSEDTAVYYCTRFYSYTYWGQGTLVTVSS[here human IgG1 constant region with V266F K439E (EU numbers) without letters]
light: DIVMTQSPLSLPVTPGEPASISCQASESLVHSNRNTYLHWYLQKPGQSPQLLIYKVSNRFSGVPDRFSGSGSGTDFTLKISRVEAEDVGVYYCSQNTHVPPTFGQGTKVEIE

relative binding activity (% of GpH7-B3/GpL16-k0) (human FcγRIIb (human)): 8
B4: GpH7-B3 P238T/GpL16-k0 (antibody, human IgG1)
heavy: QVQLVQSGAEVKKPGASVTVSCKASGYTFTDYEMHWIRQPPGEGLEWIGAIDPKTGDTAYSESFQDRVTLTADKSTSTAYMELSSLTSEDTAVYYCTRFYSYTYWGQGTLVTVSS[here human IgG1 constant region with P238T K439E (EU numbers) without letters]
light: DIVMTQSPLSLPVTPGEPASISCQASESLVHSNRNTYLHWYLQKPGQSPQLLIYKVSNRFSGVPDRFSGSGSGTDFTLKISRVEAEDVGVYYCSQNTHVPPTFGQGTKVEIE

From US20140105889A1
